Measurements published in PubChem BioAssay AID624170 (National Center for Advancing Translational Sciences (NCATS), 2012).
“And” between values parts separate entries of the source, which are not always exact repeats. Identical values can stand only once. Screen size: about 410,000 compounds; about 850 (0.21%) were called active. The inconclusive results got no clear call from the source; some entries with a clear call stand among them for comparison. Calls follow the shape of the dose curve; as a rule, active = well fitted inhibition curve with a large enough effect; inconclusive = small, poorly fitted or top-dose-only effect, or another doubt; inactive = no such curve, though single readings can be large or run the other way. Potencies beside an inconclusive call are fits to weak or partial responses and may not hold up.

The molecules below were run against Glutaminase kidney isoform, mitochondrial (Homo sapiens) (UniProt O94925) (assay: qHTS for Inhibitors of Glutaminase (GLS)). Conditions: GLS enzymatic activity, qHTS titration; series mostly up to 45.5 µM; activity change, negative = inhibition: at the top concentration.
Chain of UniProt O94925 (O94925 whole entry, looked up, canonical isoform): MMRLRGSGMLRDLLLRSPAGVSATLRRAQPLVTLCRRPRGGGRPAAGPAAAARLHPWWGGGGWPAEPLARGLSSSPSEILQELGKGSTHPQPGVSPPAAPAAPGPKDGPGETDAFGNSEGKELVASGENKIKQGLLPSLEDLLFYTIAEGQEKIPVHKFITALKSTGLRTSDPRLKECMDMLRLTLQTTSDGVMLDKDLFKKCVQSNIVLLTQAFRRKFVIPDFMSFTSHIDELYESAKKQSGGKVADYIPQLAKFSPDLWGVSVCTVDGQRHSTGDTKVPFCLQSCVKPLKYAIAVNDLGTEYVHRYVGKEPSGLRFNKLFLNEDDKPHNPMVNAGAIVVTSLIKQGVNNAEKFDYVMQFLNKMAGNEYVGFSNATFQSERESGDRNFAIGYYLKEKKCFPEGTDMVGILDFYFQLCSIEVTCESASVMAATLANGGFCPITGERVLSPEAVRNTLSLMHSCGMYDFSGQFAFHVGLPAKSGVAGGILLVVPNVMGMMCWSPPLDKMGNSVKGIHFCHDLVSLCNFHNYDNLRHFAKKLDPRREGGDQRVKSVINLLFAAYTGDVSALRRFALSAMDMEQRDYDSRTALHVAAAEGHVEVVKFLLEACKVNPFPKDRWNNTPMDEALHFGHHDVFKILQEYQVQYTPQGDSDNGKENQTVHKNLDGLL
Summary of the method: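 Read-out is an Amplex red fluorescence increase coupled through glutamate oxidase and HRP, measured before and after 30 min room-temperature incubation. hKGA is in 45 mM KH2PO4 (pH 8.2) with 0.02% Tween-20; glutamine added as 1mM solution.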
% is scaled to controls: 0 for no effect and ±100 for the full control effect; potency is read from the fitted curve at half-maximal effect; tags tell the direction and shape of the fitted curve.

| Compound | Potency | activity change, negative = inhibition |
| --- | --- | --- |
| NC(Cc1ccc(Oc2cc(I)c(O)c(I)c2)c(I)c1)C(=O)O (stereo not drawn) | inconclusive: 28.2 µM [inhibitor, partial curve] | – |
| CCCCCCCCCC[N+](C)(C)CCCCCCCCCC | inconclusive: 31.6 µM [inhibitor, single point] | – |
| Cc1ccc(NS(=O)(=O)c2ccc(Cl)c(N=Nc3c(O)[nH]c(=O)[nH]c3=O)c2)cc1Cl | inconclusive: 31.6 µM [inhibitor, single point] | – |
| c1ccc2c(CCN3CCCCC3)c[nH]c2c1 | inconclusive: 35.5 µM [inhibitor, single point] | – |
| Fc1ccc(CNCCc2c[nH]c3ccccc23)cc1 | – | inactive: 3.51% |
| CC(=O)c1c(C)n(Cc2ccccc2Cl)c2ccc(O)cc12 | inconclusive: 3.55 µM [inhibitor, partial curve, poor fit] | – |
| O=c1oc2ccccc2c(O)c1C(c1ccc([N+](=O)[O-])cc1)c1c(O)c2ccccc2oc1=O | inconclusive: 35.5 µM [inhibitor, single point] | – |
| O=c1cc(C(F)(F)F)c2cc3c4c(c2o1)CCCN4CCC3 | – | inactive: 0.211% |
| C[Se]C[C@@H](N)C(=O)O | inconclusive: 35.5 µM [inhibitor, partial curve, poor fit] | – |
| O=C1C=C(N2CC2)c2ccccc2C1=O | inconclusive: 20 µM [inhibitor, single point] | – |
| CC(Cc1ccccc1)NC(=O)c1ccc(N)cc1 (stereo not drawn) | inconclusive: 0.0891 µM [inhibitor, full curve] | – |
| Cc1cc(C)c(C)c(C(O)(C(=O)O)c2ccccc2)c1 (stereo not drawn) | – | inactive: 3.89% |
| CCN(CC)C(=O)c1ccc2c(c1)C1C(Cl)C(Sc3ccccc3[N+](=O)[O-])CC1C(C(=O)O)N2 (stereo not drawn) | inconclusive: 11.2 µM [inhibitor, partial curve] | – |
| COCc1c(CN)cnc(C)c1N | – | inactive: 1.95% |
| CC(N)C(=O)c1ccccc1 (stereo not drawn) | – | inactive: -5.13% [at 99.4 µM] |
| O=S1(=O)CCN(CCc2c[nH]c3ccccc23)CC1 | – | inactive: 7.02% |
| CC[N+](CC)(CC)CCOc1cccc(OCC[N+](CC)(CC)CC)c1OCC[N+](CC)(CC)CC | inconclusive: 35.5 µM [inhibitor, single point] | – |
| Cc1cc(OCC(=O)NC(Cc2ccc(Cl)cc2)C(=O)O)c2c3c(c(=O)oc2c1)CCC3 (stereo not drawn) | inconclusive: 35.5 µM [inhibitor, single point] | – |
| COC1C(OC(=O)c2ccc(C)[nH]2)C(O)C(Oc2ccc3c(O)c(NC(=O)c4ccc(O)c(CC=C(C)C)c4)c(=O)oc3c2Cl)OC1(C)C (stereo not drawn) | inconclusive: 35.5 µM [inhibitor, single point] | – |
| ON1C2CCCCC2N(O)C1c1ccccc1 (stereo not drawn) | inconclusive: 35.5 µM [inhibitor, single point] | – |
| CCOP(=O)(OCC)C(NC(=O)c1cccc(C)c1)C(Cl)(Cl)Cl (stereo not drawn) | – | inactive: -3.62% |
| Cc1ccc(/C=C2\C(=O)NC(=S)N(c3cccc(F)c3)C2=O)o1 | inconclusive: 7.08 µM [inhibitor, partial curve] | – |
| CC(C)(C)c1ccc(-c2c(C(=O)O)c(C(=O)O)c3n2CSC3)cc1 | inconclusive: 31.6 µM [inhibitor, single point] | – |

| Compound | Potency | activity change, negative = inhibition |
| --- | --- | --- |
| Cc1cccc(-n2c(O)c(C=Nc3ccc(Br)cn3)c(=O)[nH]c2=O)c1 | inconclusive: 35.5 µM [inhibitor, single point] | – |
| CCOC(=O)[C@]12Cc3ccccc3[C@H]1N(C(C)C)C(=O)c1cc(OC)ccc12 | inconclusive: 35.5 µM [inhibitor, single point] | – |
| CCCCCCOc1ccc(CN2CCN(C)CC2)cc1 | inconclusive: 35.5 µM [inhibitor, single point] | – |
| COc1ccc(OCC(=O)N2CCN(C3CCC(c4ccccc4)CC3)CC2)cc1 (stereo not drawn) | inconclusive: 6.31 µM [inhibitor, single point] | – |
| C=C(C)Cn1c(-c2cccs2)n[nH]c1=S | inconclusive: 35.5 µM [inhibitor, partial curve, poor fit] | – |
| CC(=O)NS(=O)(=O)c1ccc(NC(=O)c2cccn(Cc3ccc(Cl)cc3)c2=O)cc1 | inconclusive: 11.2 µM [inhibitor, partial curve] | – |
| O=[N+]([O-])c1cc(S(=O)(=O)c2ccc(O)c([N+](=O)[O-])c2)ccc1O | inconclusive: 17.8 µM [inhibitor, single point] | – |
| Fc1ccc2c(c1)nnn2C1CCN(Cc2nnnn2CCc2ccccc2)CC1 | – | inactive: 13.1% |
| CC(C)c1ccc(N2C(=O)NC(=O)/C(=C\c3cnc(-c4ccccc4)nc3)C2=O)cc1 | inconclusive: 35.5 µM [inhibitor, single point] | – |
| C[C@]12CC[C@@H]3c4ccc(O)c(O)c4CC[C@H]3[C@@H]1CC[C@@H]2O | inconclusive: 35.5 µM [inhibitor, single point] | – |
| CCOC(=O)[C@]12Cc3c(cc(OC)c(OC)c3OC)[C@H]1N(C)C(=O)c1cc(OC)ccc12 | inconclusive: 10 µM [inhibitor, partial curve] | – |
| Cc1cc(/C=C2\C(=O)NC(=O)N(c3ccc(F)cc3)C2=O)c(C)n1-c1cccc(C(=O)O)c1 | inconclusive: 17.8 µM [inhibitor, partial curve] | – |
| C=CC[N+]1(C)CC[C@]23c4c5ccc(O)c4O[C@H]2C(=O)CC[C@@]3(O)[C@H]1C5 (stereo partly drawn) | – | inactive: 43.5% |
| Cc1ccc(OCC(=O)N2CCN(CCc3ccncc3)CC2)cc1C | – | inactive: 0.528% |
| CCC(C)N1C(=O)/C(=C\c2cnc(N(C)C)nc2)C(=O)NC1=S (stereo not drawn) | inconclusive: 15.8 µM [inhibitor, single point] | – |
| CN1C(=O)C(=Cc2ccc(SC3CCCCC3)o2)C(=O)N(C)C1=O | inconclusive: 14.1 µM [inhibitor, single point] | – |
| Cc1nc2ccccn2c1P(=S)(c1ccccc1)c1ccccc1 | inconclusive: 6.31 µM [inhibitor, partial curve, poor fit] | – |
| O=C(O)c1cc[c]([Hg][Cl])cc1 | inconclusive: 5.62 µM [inhibitor, full curve, poor fit] | – |
| C=C1Nc2ccccc2C(=O)N1c1ccccc1C | – | inactive: 4.08% |
| COc1ccc2c(c1)NP(=S)(Oc1ccccc1)N2 (stereo not drawn) | inconclusive: 17.8 µM [inhibitor, single point] | – |
| CCOC(=O)[C@]12Cc3ccccc3[C@H]1N(C)C(=O)c1cc(OC)ccc12 | inconclusive: 11.2 µM [inhibitor, partial curve] | – |
| S=P(Nn1cnnc1)(c1ccc(Br)cc1)c1ccc(Br)cc1 | inconclusive: 25.1 µM [inhibitor, single point] | – |
| CC(C)CCC(=O)OC1CCC2C3CCC4=CC(=O)CC[C@]4(C)C3CC[C@]12C (stereo partly drawn) | – | inactive: 4.78% |

| Compound | Potency | activity change, negative = inhibition |
| --- | --- | --- |
| COc1ccc(C2CC(c3c(O)n(CCc4ccccc4)c(=O)[nH]c3=O)=NN2)cc1OC (stereo not drawn) | inconclusive: 8.91 µM [inhibitor, partial curve, poor fit] | – |
| CC(C)N1CCN(c2ccc(O)cc2)CC1 | inconclusive: 35.5 µM [inhibitor, single point] | – |
| Nc1ccc2c(c1)oc1ccccc12 | – | inactive: 8.42% |
| CC(C)N1C(=S)SC(C)(C)C1n1oc(=O)n(-c2ccc(Cl)c(Cl)c2)c1=O (stereo not drawn) | inconclusive: 25.1 µM [inhibitor, single point] | – |
| COc1ccc(C)cc1NC(=O)N(Cc1ccc2c(c1)OCO2)C1CCN(Cc2ccccc2)CC1 | – | inactive: -15.1% |
| CCN(CC)C(=O)c1ccc2c(c1)C1C=CCC1C(C(=O)O)N2 (stereo not drawn) | active: 7.08 µM | – |
| CCOc1cc(-c2ccc(N)c(OCC)c2)ccc1N | inconclusive: 35.5 µM [inhibitor, single point] | – |
| COC1CC2C=C(C)C=CC=CC(=O)NC(c3ccccc3)CC=CCCC(O)CC(=O)C2=C1O (stereo not drawn) | inconclusive: 20 µM [inhibitor, single point] | – |
| CN1CCN(c2c(N)c(=O)oc3ccccc23)CC1 | inconclusive: 6.31 µM [inhibitor, single point] | – |
| C/C(=N\NC(=S)Nc1ccccc1)c1c(O)n(C)c(=O)n(C)c1=O | – | inactive: -15.4% |
| CC1=NNC(=O)C1Cc1c(Cl)cccc1Cl (stereo not drawn) | inconclusive: 15.8 µM [inhibitor, partial curve, poor fit] | – |
| C=CCC1(O)CCC2C3CCC4=CC(=O)CCC4=C3C=CC21C (stereo not drawn) | inconclusive: 31.6 µM [inhibitor, single point] | – |
| Cc1cccc(Cc2cnc[nH]2)c1C | – | inactive: -2.82% |
| C[C@]12C=CC(=O)C=C1CC[C@@H]1C2CC[C@]2(C)OC(=O)CCC12 (stereo partly drawn) | inconclusive: 35.5 µM [inhibitor, single point] | – |
| CCOc1ccc(N2C(=O)/C(=C/c3ccc(C)o3)C(=O)NC2=S)cc1 | inconclusive: 11.2 µM [inhibitor, partial curve] | – |
| CCCCn1c(O)c(/C=C2/C=CC=N2)c(=O)[nH]c1=O | – | inactive: 0.916% |
| Cc1cc(C)c2c(c1)NP(=S)(c1ccccc1)N2 (stereo not drawn) | inconclusive: 12.6 µM [inhibitor, partial curve] | – |
| Cc1ccc(-n2sc3ccccc3c2=O)cc1 | inconclusive: 28.2 µM [inhibitor, single point] | – |
| CCCCCCCCCCCCCCCC[n+]1ccccc1 | inconclusive: 35.5 µM [inhibitor, single point] and inconclusive: 22.4 µM [inhibitor, single point] | – |
| O=C1NC(=O)C(=Cc2ccc(OCCOc3ccc([N+](=O)[O-])cc3)cc2)C(=O)N1 | inconclusive: 35.5 µM [inhibitor, single point] | – |
| Cc1ccc2c(c1)NP(=S)(Oc1ccccc1)N2 (stereo not drawn) | inconclusive: 12.6 µM [inhibitor, partial curve] | – |
| COc1ccc2c(c1)cc(C(=O)N[C@@H](Cc1ccccc1)C(=O)N[C@@H](C)C(=O)O)n2C | inconclusive: 28.2 µM [inhibitor, single point] | – |
